Data on 23 cell lines can be found in the supplement of paper PMC4967469.

Experiment in all cases: Viability of human cancer cell lines after 72 h of drug (GDSC screen)
Compound in assay [1]: CC(=O)c1c(C)c2cnc(Nc3ccc(N4CCNCC4)cn3)nc2n(C2CCCC2)c1=O [PD-0332991]
The method, then:
(§1)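 Human cancer cell lines in 384-well plates, medium with 10% serum, drug for 72 h over a 256-fold dose range (nine 2-fold or five 4-fold steps up to the top dose). Adherent lines were fixed and stained with the nucleic acid dye Syto60, suspension lines read with resazurin; signal relative to control wells, capped at 0 and 100%. One two-parameter sigmoid per drug and line, fitted in a mixed model over all curves with the slope shared within a line.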

Compound in assay [2]: Cn1cnc2c(F)c(Nc3ccc(Br)cc3Cl)c(C(=O)NOCCO)cc21 [AZD6244]
To be noted: screen: GDSC drug entry 1062. The method, then: as §1

Compound in assay [3]: COc1cc2c(Nc3ccc(NC(=O)c4ccccc4)cc3)ncnc2cc1OCCCN1CCOCC1 [ZM-447439]
To be noted: top dose inferred. The method, then:
as §1

Lines with a small IC50 respond at low doses; fits outside the tested doses are given as limits. AUC sums up the same curve from the lowest dose to the 256-fold higher top dose: 1 means no effect, lower means more sensitive. For some of these results: An inferred top dose comes from the curve model; the source does not state it. For some of these results: An entry number marks a drug with two screens in the source, which often give different values.

With “8-MG-BA (glioma, adherent, top dose 4 µM)”, the values for the AUC in assay [1], in assay [2] and in assay [3] were 0.982, 0.969 and 0.89, respectively. Further, the IC50 in assay [1], in assay [2] and in assay [3] was greater than 4 µM each time.

As for “42-MG-BA (glioma, adherent, top dose 4 µM)”, the AUC worked out at 0.969 in assay [1], 0.911 in assay [2] and 0.866 in assay [3]. In addition, the concentration for half-maximal inhibition (IC50) is greater than 4 µM in assay [1], greater than 4 µM in assay [2] and 3.97 µM in assay [3].

On to “201T (lung adenocarcinoma, adherent, top dose 4 µM)”, for which the AUC in assay [1] stood at 0.812; in assay [2], 0.974; in assay [3], 0.938. Also, the results for the IC50 in assay [1], in assay [2] and in assay [3] were 2.84 µM, greater than 4 µM and greater than 4 µM, respectively.

Consider “639-V (bladder, adherent, top dose 4 µM)”, for which the values for the AUC in assay [1], in assay [2] and in assay [3] were 0.943, 0.969 and 0.972, respectively. The IC50 in assay [1], in assay [2] and in assay [3] was greater than 4 µM in each case.

For “647-V (bladder, adherent, top dose 4 µM)”, the AUC is 0.987 in assay [1], 0.987 in assay [2] and 0.978 in assay [3]. In addition, the concentration for half-maximal inhibition (IC50) in assay [1], in assay [2] and in assay [3] was greater than 4 µM throughout.

“697 (lymphoblastic leukaemia, suspension, top dose 4 µM)”: the values for the AUC in assay [1], in assay [2] and in assay [3] were 0.259, 0.99 and 0.662, respectively. Also, the IC50 in assay [1] is 0.0608 µM; in assay [2], greater than 4 µM; in assay [3] it was 0.635 µM.

On to 786-0 (kidney, adherent, top dose 4 µM), for which the AUC was found to be 0.76 in assay [1], 0.907 in assay [2] and 0.933 in assay [3]. The IC50 is 1.31 µM in assay [1], greater than 4 µM in assay [2] and greater than 4 µM in assay [3].

Turning to 5637 (bladder, adherent, top dose 4 µM), the AUC in assay [1] stood at 0.988; in assay [2] it was 0.982; in assay [3], 0.802. Moreover, the results for the half-maximal inhibitory concentration (IC50) in assay [1], in assay [2] and in assay [3] were greater than 4 µM, greater than 4 µM and 1.75 µM, respectively.

In the case of “8305C (thyroid, adherent, top dose 4 µM)”, the values for the AUC in assay [1], in assay [2] and in assay [3] were 0.826, 0.794 and 0.946, respectively. Moreover, the IC50 is 3.48 µM in assay [1], 2.52 µM in assay [2] and greater than 4 µM in assay [3].

As to “8505C (thyroid, adherent, top dose 4 µM)”, the AUC turned out to be 0.855 in assay [1], 0.974 in assay [2] and 0.883 in assay [3]. Also, the IC50 in assay [1] is 3.49 µM; in assay [2] it was greater than 4 µM; in assay [3], greater than 4 µM.

As to “23132-87 (stomach, adherent, top dose 4 µM)”, the AUC in assay [1] turned out to be 0.939; in assay [2] it was 0.986; in assay [3], 0.972. Also, the IC50 in assay [1], in assay [2] and in assay [3] was greater than 4 µM each time.

For “A3-KAW (B-cell lymphoma, suspension, top dose 4 µM)”, the results for the AUC in assay [1], in assay [2] and in assay [3] were 0.992, 0.976 and 0.993, respectively. The IC50 in assay [1], in assay [2] and in assay [3] was greater than 4 µM in each case.

With “A4-Fuk (B-cell lymphoma, suspension, top dose 4 µM)”, the AUC stood at 0.855 in assay [1], 0.707 in assay [2] and 0.829 in assay [3]. Besides, the IC50 in assay [1] amounted to 3.42 µM; in assay [2], 0.988 µM; in assay [3], 2.64 µM.

For “A101D (melanoma, adherent, top dose 4 µM)”, the AUC in assay [1] came to 0.769; in assay [2], 0.945; in assay [3] it was 0.869. For the same cell line, the IC50 in assay [1] is 1.85 µM; in assay [2], greater than 4 µM; in assay [3], greater than 4 µM.

Regarding “A253 (head and neck, adherent, top dose 4 µM)”, the AUC in assay [1] worked out at 0.954; in assay [2], 0.989; in assay [3] it was 0.968. The IC50 in assay [1], in assay [2] and in assay [3] was greater than 4 µM each time.

Consider “A375 (melanoma, adherent, top dose 4 µM)”, for which the results for the AUC in assay [1] and in assay [3] were 0.666 and 0.778, respectively. Further, the IC50 in assay [1] was 0.657 µM; in assay [3], 1.34 µM.

In the case of A388 (skin, adherent, top dose 4 µM), the figures for the AUC in assay [1], in assay [2] and in assay [3] were 0.828, 0.974 and 0.917, respectively. The 50% inhibitory concentration (IC50) is 2.97 µM in assay [1], greater than 4 µM in assay [2] and greater than 4 µM in assay [3].

Take “A427 (non-small cell lung carcinoma, adherent, top dose 4 µM)”: the AUC in assay [1] came to 0.907; in assay [2], 0.88; in assay [3] it was 0.872. The IC50 is greater than 4 µM in assay [1], greater than 4 µM in assay [2] and 3.89 µM in assay [3].

As for A431 (skin, adherent, top dose 4 µM), the AUC in assay [1] came out at 0.895; in assay [2], 0.932; in assay [3], 0.928. Further, the 50% inhibitory concentration (IC50) in assay [1], in assay [2] and in assay [3] was greater than 4 µM each time.

For A498 (kidney, adherent, top dose 4 µM), the AUC in assay [1] was 0.947; in assay [2] it was 0.832; in assay [3] it was 0.824. Also, the half-inhibitory concentration (IC50) in assay [1], in assay [2] and in assay [3] was greater than 4 µM in each case.

Turning to “A673 (rhabdomyosarcoma, adherent, top dose 4 µM)”, the AUC in assay [1] was 0.89; in assay [2], 0.982; in assay [3], 0.98. Moreover, the IC50 in assay [1] was 3.79 µM; in assay [2], greater than 4 µM; in assay [3], greater than 4 µM.

“A2780 (ovary, semi-adherent, top dose 4 µM)”: the AUC in assay [1] amounted to 0.957; in assay [2], 0.985; in assay [3] it was 0.982. Moreover, the 50% inhibitory concentration (IC50) in assay [1], in assay [2] and in assay [3] was greater than 4 µM throughout.

With AGS (stomach, adherent, top dose 4 µM), the values for the AUC in assay [1], in assay [2] and in assay [3] were 0.792, 0.945 and 0.915, respectively. The IC50 was 1.61 µM in assay [1], greater than 4 µM in assay [2] and greater than 4 µM in assay [3].
